{"sequences": {"note": "Protein sequences, listed by entry. Tags and fused reporters are not part of them. Lines headed by an entry give the natural chain unless they say otherwise; changes in a name come on top. Chains listed by the source or under a name are the forms on record and can include a tag or linker. Residues count along the entry.", "UniProt Q5VSL9": "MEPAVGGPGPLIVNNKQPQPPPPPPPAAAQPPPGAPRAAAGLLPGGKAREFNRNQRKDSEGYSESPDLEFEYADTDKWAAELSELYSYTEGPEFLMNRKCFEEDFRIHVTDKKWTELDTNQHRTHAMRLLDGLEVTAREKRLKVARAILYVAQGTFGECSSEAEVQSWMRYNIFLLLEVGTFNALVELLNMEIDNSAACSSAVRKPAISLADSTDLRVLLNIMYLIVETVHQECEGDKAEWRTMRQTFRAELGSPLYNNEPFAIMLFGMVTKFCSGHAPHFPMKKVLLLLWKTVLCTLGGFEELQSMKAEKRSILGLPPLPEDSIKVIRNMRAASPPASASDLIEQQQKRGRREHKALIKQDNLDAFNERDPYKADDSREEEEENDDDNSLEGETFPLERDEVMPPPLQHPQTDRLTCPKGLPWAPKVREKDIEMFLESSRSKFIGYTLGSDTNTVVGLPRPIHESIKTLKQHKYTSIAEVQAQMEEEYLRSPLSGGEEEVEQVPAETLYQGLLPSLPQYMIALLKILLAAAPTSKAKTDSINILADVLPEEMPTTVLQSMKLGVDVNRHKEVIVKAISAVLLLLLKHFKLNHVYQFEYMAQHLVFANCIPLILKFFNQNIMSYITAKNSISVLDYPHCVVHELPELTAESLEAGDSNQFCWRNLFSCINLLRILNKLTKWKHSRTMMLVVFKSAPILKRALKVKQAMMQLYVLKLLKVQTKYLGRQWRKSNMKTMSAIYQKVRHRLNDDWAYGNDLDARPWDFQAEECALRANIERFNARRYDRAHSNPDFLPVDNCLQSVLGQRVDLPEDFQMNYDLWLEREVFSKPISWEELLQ", "STRIP1 C-terminal tail region containing residues 721–837": "residues 721-837 of Q5VSL9", "HA-tagged STRIP1 Δ421–744 (Q5VSL9, form named)": "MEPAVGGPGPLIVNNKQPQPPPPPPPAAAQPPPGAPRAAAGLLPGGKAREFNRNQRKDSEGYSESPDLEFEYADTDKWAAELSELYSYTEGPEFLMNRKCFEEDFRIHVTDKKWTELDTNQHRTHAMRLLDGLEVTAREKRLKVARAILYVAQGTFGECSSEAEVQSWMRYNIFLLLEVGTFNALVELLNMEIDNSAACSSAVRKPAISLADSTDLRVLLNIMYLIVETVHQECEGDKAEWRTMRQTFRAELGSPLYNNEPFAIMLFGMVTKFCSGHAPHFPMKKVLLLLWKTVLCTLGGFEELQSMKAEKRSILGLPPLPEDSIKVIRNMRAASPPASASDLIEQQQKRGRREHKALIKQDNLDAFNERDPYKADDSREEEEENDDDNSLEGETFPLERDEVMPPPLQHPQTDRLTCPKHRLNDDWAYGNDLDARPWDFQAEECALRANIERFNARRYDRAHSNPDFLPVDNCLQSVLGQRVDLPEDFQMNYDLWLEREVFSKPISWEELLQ", "UniProt Q9P289": "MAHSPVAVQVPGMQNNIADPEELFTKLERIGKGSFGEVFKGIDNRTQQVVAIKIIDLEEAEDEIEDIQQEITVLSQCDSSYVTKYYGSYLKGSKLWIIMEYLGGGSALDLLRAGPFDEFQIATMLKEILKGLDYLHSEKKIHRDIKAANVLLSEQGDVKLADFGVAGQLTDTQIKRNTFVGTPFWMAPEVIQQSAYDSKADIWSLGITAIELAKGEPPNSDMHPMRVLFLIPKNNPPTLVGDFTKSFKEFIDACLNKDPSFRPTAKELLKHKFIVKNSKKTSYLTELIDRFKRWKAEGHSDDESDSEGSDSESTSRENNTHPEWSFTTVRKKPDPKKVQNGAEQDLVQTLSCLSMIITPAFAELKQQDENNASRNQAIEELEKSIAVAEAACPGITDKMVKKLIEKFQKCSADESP", "UniProt O95747": "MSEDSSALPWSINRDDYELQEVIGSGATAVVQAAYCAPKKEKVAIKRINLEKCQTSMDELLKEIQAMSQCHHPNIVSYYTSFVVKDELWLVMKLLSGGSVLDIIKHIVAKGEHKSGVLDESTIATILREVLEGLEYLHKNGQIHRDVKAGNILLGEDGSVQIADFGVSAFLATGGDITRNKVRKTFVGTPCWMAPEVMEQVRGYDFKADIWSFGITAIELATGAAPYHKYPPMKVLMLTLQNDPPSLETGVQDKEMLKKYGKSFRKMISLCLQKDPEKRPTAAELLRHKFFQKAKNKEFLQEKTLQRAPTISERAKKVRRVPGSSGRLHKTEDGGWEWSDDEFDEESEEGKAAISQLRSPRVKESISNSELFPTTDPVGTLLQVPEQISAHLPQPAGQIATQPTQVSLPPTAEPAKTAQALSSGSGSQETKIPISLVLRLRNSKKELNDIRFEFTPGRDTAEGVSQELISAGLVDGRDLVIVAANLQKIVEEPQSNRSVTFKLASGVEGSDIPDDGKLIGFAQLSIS"}, "source": "paper PMC6323126", "key": {"[1]": {"target": "T1, MST2 (recombinant, wildtype) (human) (UniProt Q13188)", "T1 sequence": "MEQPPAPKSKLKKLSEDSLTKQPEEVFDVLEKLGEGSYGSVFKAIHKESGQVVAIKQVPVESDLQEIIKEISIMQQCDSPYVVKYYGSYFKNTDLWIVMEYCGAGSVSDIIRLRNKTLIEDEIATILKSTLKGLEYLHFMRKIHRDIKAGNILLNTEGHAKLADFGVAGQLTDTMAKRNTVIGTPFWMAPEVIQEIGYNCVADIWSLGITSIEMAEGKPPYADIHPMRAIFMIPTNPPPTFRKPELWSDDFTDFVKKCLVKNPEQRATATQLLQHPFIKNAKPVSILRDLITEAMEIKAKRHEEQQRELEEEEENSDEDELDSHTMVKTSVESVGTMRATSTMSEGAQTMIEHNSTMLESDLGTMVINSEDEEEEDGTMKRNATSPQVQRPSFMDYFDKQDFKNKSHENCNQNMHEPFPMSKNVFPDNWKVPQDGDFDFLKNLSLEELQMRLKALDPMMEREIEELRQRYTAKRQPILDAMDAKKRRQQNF", "experiment": "pull-down; MBP pulldown of Flag-STRIP1 fragments made in an in vitro cell-free system with the MST kinase; immunoblot; only the target purified"}, "[2]": {"target": "T2, STRN3 (endogenous) (human (endogenous in HEK293FT)) (UniProt Q13033)", "T2 sequence": "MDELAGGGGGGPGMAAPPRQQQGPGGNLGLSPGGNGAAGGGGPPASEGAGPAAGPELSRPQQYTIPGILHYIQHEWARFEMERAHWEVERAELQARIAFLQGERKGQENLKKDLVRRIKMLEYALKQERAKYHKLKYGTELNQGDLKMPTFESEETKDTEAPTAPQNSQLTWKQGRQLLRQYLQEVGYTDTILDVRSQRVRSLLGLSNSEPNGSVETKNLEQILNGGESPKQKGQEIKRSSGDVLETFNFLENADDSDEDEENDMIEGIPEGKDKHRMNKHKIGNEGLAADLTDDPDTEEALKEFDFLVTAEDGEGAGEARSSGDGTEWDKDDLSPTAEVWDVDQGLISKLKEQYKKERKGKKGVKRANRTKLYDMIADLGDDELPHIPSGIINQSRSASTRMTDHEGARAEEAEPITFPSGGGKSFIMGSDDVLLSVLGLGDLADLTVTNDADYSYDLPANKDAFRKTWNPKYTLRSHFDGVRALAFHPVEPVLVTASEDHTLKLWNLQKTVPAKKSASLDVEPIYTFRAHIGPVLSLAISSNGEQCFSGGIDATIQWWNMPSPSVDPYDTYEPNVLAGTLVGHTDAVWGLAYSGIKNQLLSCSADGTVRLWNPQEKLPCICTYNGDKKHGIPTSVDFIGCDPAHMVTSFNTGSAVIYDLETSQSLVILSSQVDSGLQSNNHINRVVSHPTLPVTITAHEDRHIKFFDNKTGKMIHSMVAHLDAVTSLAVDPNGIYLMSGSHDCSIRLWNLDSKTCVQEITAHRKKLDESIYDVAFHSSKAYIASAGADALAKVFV", "experiment": "co-IP; endogenous proteins, HEK293FT cells at high (80%) and low (10%) cell density; immunoprecipitation of STRN3 or MST1; immunoblot"}, "[3]": {"target": "T3, Flag-tagged MST2 (wildtype, in cells) (human) (UniProt Q13188)", "T3 sequence": "T1 sequence", "experiment": "co-IP; HEK293FT cells transfected with tagged plasmids, lysed 24 h later in RIPA buffer; immunoprecipitation with indicated antibodies and Protein A/G beads; immunoblot"}, "[4]": {"target": "T4, Flag-tagged MST2 K56R (in cells) (human) (UniProt Q13188)", "T4 sequence": "T1 sequence with K56R", "experiment": "co-IP; HEK293FT cells transfected with tagged plasmids, lysed 24 h later in RIPA buffer; immunoprecipitation with indicated antibodies and Protein A/G beads; immunoblot"}, "[5]": {"target": "T5, Flag-tagged STRN3 (wildtype, in cells) (human) (UniProt Q13033)", "T5 sequence": "T2 sequence", "experiment": "co-IP; HEK293FT cells transfected with tagged plasmids, lysed 24 h later in RIPA buffer; immunoprecipitation with indicated antibodies and Protein A/G beads; immunoblot"}, "[6]": {"target": "T6, Flag-tagged STRN3 Δ64–145 (human) (UniProt Q13033)", "T6 sequence": "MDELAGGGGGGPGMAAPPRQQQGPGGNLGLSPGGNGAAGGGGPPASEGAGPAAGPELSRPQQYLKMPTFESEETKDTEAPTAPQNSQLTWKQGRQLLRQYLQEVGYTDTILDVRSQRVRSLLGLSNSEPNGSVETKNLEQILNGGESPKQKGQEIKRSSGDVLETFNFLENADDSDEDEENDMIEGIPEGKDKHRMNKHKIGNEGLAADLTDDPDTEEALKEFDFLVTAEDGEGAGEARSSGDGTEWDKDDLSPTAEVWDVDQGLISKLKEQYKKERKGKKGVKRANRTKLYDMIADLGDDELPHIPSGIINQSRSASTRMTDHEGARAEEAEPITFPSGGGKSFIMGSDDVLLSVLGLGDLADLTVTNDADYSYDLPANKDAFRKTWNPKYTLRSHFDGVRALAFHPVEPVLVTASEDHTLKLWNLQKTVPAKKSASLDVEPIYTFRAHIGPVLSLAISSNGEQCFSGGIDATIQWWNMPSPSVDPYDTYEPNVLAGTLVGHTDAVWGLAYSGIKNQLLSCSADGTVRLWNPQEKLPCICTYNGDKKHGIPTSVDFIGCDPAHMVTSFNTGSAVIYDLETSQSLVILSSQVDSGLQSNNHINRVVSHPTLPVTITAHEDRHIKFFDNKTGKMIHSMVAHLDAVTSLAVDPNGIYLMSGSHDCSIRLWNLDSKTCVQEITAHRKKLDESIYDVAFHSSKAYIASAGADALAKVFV", "experiment": "co-IP; HEK293FT cells transfected with tagged plasmids, lysed 24 h later in RIPA buffer; immunoprecipitation with indicated antibodies and Protein A/G beads; immunoblot"}, "[7]": {"target": "STRIP1 C-terminal tail region containing residues 721–837 (UniProt Q5VSL9)", "experiment": "pull-down; pulldown with purified recombinant proteins shown in supplementary figures; whether GST or MBP and who carried the tag not told; both purified"}, "[8]": {"target": "MST4 (recombinant) (human) (UniProt Q9P289)", "experiment": "pull-down; MBP pulldown of Flag-STRIP1 fragments made in an in vitro cell-free system with the MST kinase; immunoblot; only the target purified"}, "[9]": {"target": "T7, STRN3 coiled-coil domain (CC, amino acid residues 64–145) (human) (UniProt Q13033)", "T7 sequence": "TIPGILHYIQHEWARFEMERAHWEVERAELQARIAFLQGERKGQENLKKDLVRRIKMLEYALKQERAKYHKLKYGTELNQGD", "experiment": "pull-down; pulldown with purified recombinant proteins shown in supplementary figures; whether GST or MBP and who carried the tag not told; both purified"}, "[10]": {"target": "T8, MST1 (endogenous) (human (endogenous in HEK293FT)) (UniProt Q13043)", "T8 sequence": "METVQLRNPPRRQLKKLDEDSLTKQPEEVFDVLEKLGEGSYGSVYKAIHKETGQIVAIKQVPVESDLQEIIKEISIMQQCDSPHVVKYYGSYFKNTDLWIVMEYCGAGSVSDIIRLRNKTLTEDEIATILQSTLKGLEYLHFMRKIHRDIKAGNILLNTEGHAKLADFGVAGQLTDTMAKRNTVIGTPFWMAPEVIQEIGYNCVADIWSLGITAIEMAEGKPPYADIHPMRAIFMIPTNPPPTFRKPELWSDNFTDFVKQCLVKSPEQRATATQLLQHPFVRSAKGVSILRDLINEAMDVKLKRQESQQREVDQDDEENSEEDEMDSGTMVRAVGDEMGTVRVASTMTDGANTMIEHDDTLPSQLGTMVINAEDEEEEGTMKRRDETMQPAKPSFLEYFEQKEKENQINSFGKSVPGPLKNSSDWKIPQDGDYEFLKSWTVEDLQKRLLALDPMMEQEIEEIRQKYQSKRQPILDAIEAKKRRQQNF", "experiment": "co-IP; endogenous proteins, HEK293FT cells at high (80%) and low (10%) cell density; immunoprecipitation of STRN3 or MST1; immunoblot"}, "GST-tagged MST2 (human)": {"target": "T9, GST-tagged MST2 (human) (UniProt Q13188)", "T9 sequence": "T1 sequence", "experiment": "pull-down; pulldown with the kinase (MST2 or MST4) first dephosphorylated with lambda-phosphatase (λPPase); both purified"}, "[11]": {"target": "T10, MBP-tagged FGFR1OP2 (human) (UniProt Q9NVK5)", "T10 sequence": "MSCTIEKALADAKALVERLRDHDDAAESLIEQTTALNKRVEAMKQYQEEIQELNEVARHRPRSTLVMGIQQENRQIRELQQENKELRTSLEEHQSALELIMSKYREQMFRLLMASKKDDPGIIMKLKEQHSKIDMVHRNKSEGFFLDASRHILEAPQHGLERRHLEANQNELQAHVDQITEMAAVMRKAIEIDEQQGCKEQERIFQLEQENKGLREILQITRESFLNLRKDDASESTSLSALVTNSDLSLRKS", "experiment": "pull-down; MBP pulldown: MBP-tagged protein, partner and amylose resin mixed at 4 °C for 1 h in 20 mM HEPES (pH 7.5), 100 mM NaCl; eluted with 20 mM maltose; SDS-PAGE, Coomassie staining; both purified"}, "MBP-tagged SIKE1 (human)": {"target": "T11, MBP-tagged SIKE1 (human) (UniProt Q9BRV8)", "T11 sequence": "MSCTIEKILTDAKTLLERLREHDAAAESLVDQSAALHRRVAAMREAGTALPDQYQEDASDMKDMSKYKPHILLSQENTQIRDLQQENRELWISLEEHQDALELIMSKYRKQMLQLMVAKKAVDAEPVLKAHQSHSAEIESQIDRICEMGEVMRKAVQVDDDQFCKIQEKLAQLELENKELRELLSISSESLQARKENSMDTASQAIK", "experiment": "pull-down; MBP pulldown: MBP-tagged protein, partner and amylose resin mixed at 4 °C for 1 h in 20 mM HEPES (pH 7.5), 100 mM NaCl; eluted with 20 mM maltose; SDS-PAGE, Coomassie staining; both purified"}, "[12]": {"target": "T12, MST2 K56R (recombinant) (human) (UniProt Q13188)", "T12 sequence": "T1 sequence with K56R", "experiment": "pull-down; MBP pulldown: MBP-tagged protein, partner and amylose resin mixed at 4 °C for 1 h in 20 mM HEPES (pH 7.5), 100 mM NaCl; eluted with 20 mM maltose; SDS-PAGE, Coomassie staining; both purified"}, "[13]": {"target": "OSR1 (recombinant) (human) (UniProt O95747)", "experiment": "pull-down; GST pulldown: GST-tagged protein, partner and glutathione Sepharose mixed at 4 °C for 1 h in 20 mM HEPES (pH 7.5), 100 mM NaCl; eluted with 20 mM reduced glutathione; SDS-PAGE, Coomassie staining; both purified"}}, "note": "Numbering of substitutions follows the chain as printed. Results are given in words; binding and its absence hold for the method and conditions named. For some of these results: In cells and extracts the contact can be indirect. Some results given as binding are weak or reduced against the parent protein; the word gives no strength. For some of these results: Sequences can lack the tags named with a protein.", "data": [{"substance": "Flag-STRIP1 residues 421–744 (kinase-binding domain, KBD), cell-free (from UniProt Q5VSL9 421-744) (domain or fragment)", "values": [{"measurement": "binding", "setting": "[1]", "result": "binds"}]}, {"substance": "MST4 (endogenous) (from UniProt Q9P289 1-416) (enzyme)", "values": [{"measurement": "binding", "setting": "[2]", "result": "binds"}]}, {"substance": "HA-tagged STRIP1 (wildtype, in cells) (from UniProt Q5VSL9 1-837)", "values": [{"measurement": "binding", "setting": "[3]", "result": "binds"}, {"measurement": "binding", "setting": "[4]", "result": "no binding"}, {"measurement": "binding", "setting": "[5]", "result": "binds"}, {"measurement": "binding", "setting": "[6]", "result": "no binding"}]}, {"substance": "MST4 (recombinant) (from UniProt Q9P289 1-416) (enzyme)", "values": [{"measurement": "binding", "setting": "[7]", "result": "no binding"}]}, {"substance": "Flag-STRIP1 C-terminal region (residues 421–837), cell-free (from UniProt Q5VSL9 421-837) (domain or fragment)", "values": [{"measurement": "binding", "setting": "[1]", "result": "binds"}, {"measurement": "binding", "setting": "[8]", "result": "binds"}]}, {"substance": "HA-tagged STRIP1 Δ421–744 (from UniProt Q5VSL9 1-837)", "values": [{"measurement": "binding", "setting": "[3]", "result": "no binding"}]}, {"substance": "N-terminal domain of STRIP1 (residues 1–420), recombinant (from UniProt Q5VSL9 1-420) (domain or fragment)", "values": [{"measurement": "binding", "setting": "[9]", "result": "no binding"}]}, {"substance": "HA-tagged STRIP1 Δ796–837 (from UniProt Q5VSL9 1-837)", "values": [{"measurement": "binding", "setting": "[5]", "result": "no binding"}]}, {"substance": "N-terminal domain of STRIP1 (residues 1–350) (from UniProt Q5VSL9 1-350) (domain or fragment)", "values": [{"measurement": "binding", "setting": "[9]", "result": "no binding"}]}, {"substance": "STRIP1 (endogenous) (from UniProt Q5VSL9 1-837)", "values": [{"measurement": "binding", "setting": "[10]", "result": "binds"}, {"measurement": "binding", "setting": "[2]", "result": "binds"}]}, {"substance": "STRIP1 (full-length, His-tagged, insect cells) (from UniProt Q5VSL9 1-837)", "values": [{"measurement": "binding", "setting": "GST-tagged MST2 (human)", "result": "no binding (condition: MST2 treated with λPPase)"}, {"measurement": "binding", "setting": "[11]", "result": "no binding"}, {"measurement": "binding", "setting": "MBP-tagged SIKE1 (human)", "result": "no binding"}, {"measurement": "binding", "setting": "[12]", "result": "no binding"}, {"measurement": "binding", "setting": "[13]", "result": "no binding"}]}, {"substance": "Flag-STRIP1 N-terminal domain (NTD, residues 1–420), cell-free (from UniProt Q5VSL9 1-420) (domain or fragment)", "values": [{"measurement": "binding", "setting": "[1]", "result": "no binding"}, {"measurement": "binding", "setting": "[8]", "result": "no binding"}]}]}
